This is an account of results in PMC4336329 (PLoS ONE, 2015).

The whole screen tested about 310,000 compounds, of which about 14,000 (4.5%) showed an effect of 50% or more. Effects have a minus sign here. This is one part of the list.
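Further: peak tail current of the secondary pulse compared with the same well before compound.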

For the assay, the target named is human ether-à-go-go-related gene (hERG) potassium channel (human, UniProt Q12809). Put plainly: primary screen, population patch clamp on CHO cells stably expressing hERG.
Chain of human ether-à-go-go-related gene (hERG) potassium channel (Q12809 whole entry, looked up): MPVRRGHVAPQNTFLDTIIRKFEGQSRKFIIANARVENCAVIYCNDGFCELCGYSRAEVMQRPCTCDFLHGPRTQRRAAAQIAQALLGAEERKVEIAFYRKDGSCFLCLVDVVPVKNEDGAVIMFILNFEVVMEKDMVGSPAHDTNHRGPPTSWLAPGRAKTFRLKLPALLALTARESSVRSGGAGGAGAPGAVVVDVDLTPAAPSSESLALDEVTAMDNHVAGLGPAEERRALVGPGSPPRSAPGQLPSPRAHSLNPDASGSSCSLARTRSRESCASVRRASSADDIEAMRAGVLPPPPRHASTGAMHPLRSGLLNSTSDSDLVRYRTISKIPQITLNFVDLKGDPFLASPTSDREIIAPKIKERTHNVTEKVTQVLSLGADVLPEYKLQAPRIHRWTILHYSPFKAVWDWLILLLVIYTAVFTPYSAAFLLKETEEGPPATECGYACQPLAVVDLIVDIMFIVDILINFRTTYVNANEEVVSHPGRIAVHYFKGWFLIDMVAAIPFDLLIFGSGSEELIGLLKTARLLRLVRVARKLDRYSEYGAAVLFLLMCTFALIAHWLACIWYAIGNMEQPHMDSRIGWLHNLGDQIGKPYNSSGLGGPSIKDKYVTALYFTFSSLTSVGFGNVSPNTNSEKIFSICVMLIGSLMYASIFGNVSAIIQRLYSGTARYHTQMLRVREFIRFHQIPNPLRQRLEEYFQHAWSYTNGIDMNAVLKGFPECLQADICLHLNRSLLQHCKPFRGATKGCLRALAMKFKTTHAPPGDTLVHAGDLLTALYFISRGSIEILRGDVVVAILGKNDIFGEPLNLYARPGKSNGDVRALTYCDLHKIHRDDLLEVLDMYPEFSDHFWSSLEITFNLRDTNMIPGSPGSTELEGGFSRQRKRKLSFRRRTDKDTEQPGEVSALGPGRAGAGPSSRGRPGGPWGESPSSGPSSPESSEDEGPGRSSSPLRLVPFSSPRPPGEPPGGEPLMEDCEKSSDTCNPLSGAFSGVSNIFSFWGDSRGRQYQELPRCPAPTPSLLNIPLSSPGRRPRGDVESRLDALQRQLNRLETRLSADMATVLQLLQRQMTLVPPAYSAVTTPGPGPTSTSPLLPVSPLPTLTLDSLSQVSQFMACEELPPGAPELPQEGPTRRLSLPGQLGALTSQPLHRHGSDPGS
`COc1ccc(-c2coc3cc(OC)cc(O)c3c2=O)cc1`: the “hERG current change (%, negative = inhibition) at 10uM” value is 24.5%.

Consider `CN1CCN(c2nc3ccccc3nc2C(C#N)S(=O)(=O)c2ccccc2)CC1` (stereo not drawn), for which the “hERG current change (%, negative = inhibition) at 10uM” value is listed as -6.42%.

As for `Cc1cccc(OCC(=O)NCc2ccc(F)cc2)c1`, the “hERG current change (%, negative = inhibition) at 10uM” value is recorded as 2.54%.

On to `CCOP(=O)(OCC)C(C)(C)NC(=O)c1cc([N+](=O)[O-])cc([N+](=O)[O-])c1`, for which the “hERG current change (%, negative = inhibition) at 10uM” value amounted to 7.07%.

For the molecule `COc1ccc(OCc2nc3c4c(ncn3n2)-c2ccccc2CC42CCCC2)cc1`, the “hERG current change (%, negative = inhibition) at 10uM” value stood at 6.66%.

As to `O=C(O)[C@H](CO)Nc1ncnc2sc3c(c12)CCC3`, the “hERG current change (%, negative = inhibition) at 10uM” value is given as -0.873%.

`CCOc1ccc(NC(=O)c2ccc(Cl)c(NC(=O)c3ccco3)c2)cc1`: the “hERG current change (%, negative = inhibition) at 10uM” value is on record as 2.06%.

Take `O=C(Cc1coc2ccc3ccccc3c12)N1CCN(c2ncccn2)CC1`: the “hERG current change (%, negative = inhibition) at 10uM” value is 5.86%.

For `CCN(CC)C(=O)Oc1ccc(OC(=O)N(CC)CC)cc1`, the “hERG current change (%, negative = inhibition) at 10uM” value turned out to be 14.6%.

As for `CCCc1cc(-c2n[nH]c(C(=O)OCC)c2-c2cscn2)c(O)cc1O`, the “hERG current change (%, negative = inhibition) at 10uM” value is recorded as 0.233%.

Consider `COc1ccc(Cc2n[nH]c(=S)o2)cc1`, for which the “hERG current change (%, negative = inhibition) at 10uM” value was 21.1%.

Take `CCCCOc1cccc(C2(C(=O)O)CCCC2)c1`: the “hERG current change (%, negative = inhibition) at 10uM” value was -35.4%.

With `C=CCSc1nnc(C)c(/C=C/Nc2ccc(Cl)cc2)n1`, the “hERG current change (%, negative = inhibition) at 10uM” value is -9.44%.

On to `CCOC(=O)C1(Cc2ccccc2C)CCCN(C(=O)c2sccc2C)C1` (stereo not drawn), for which the “hERG current change (%, negative = inhibition) at 10uM” value is -5.43%.

As for `NS(=O)(=O)c1cccc(NC(=O)COC(=O)Cn2cc(C(F)(F)F)ccc2=O)c1`, the “hERG current change (%, negative = inhibition) at 10uM” value amounted to 28%.

With `CCCCOP(=O)(OCCCC)/C(C#N)=C(/C)O`, the “hERG current change (%, negative = inhibition) at 10uM” value was determined as 13.1%.

Turning to `CC1CCC2(CC1)NC(=O)N(Cc1cccc(C(F)(F)F)c1)C2=O` (stereo not drawn), the “hERG current change (%, negative = inhibition) at 10uM” value was 12.9%.

Consider `CC(C)c1ccc(C2NC(=O)CCC2[N+](=O)[O-])cc1` (stereo not drawn), for which the “hERG current change (%, negative = inhibition) at 10uM” value is -4.22%.

On to `Cc1ccc(N=Nc2c(C)[nH]n(-c3ccccc3)c2=O)cc1Br`, for which the “hERG current change (%, negative = inhibition) at 10uM” value worked out at 15.7%.

Regarding `COC(=O)CCCn1nc(NC(=O)c2ccco2)cc1C`, the “hERG current change (%, negative = inhibition) at 10uM” value came out at 8.94%.

Take `COc1ccc(S(=O)(=O)NCc2ccco2)cc1NC(=O)c1ccccc1`: the “hERG current change (%, negative = inhibition) at 10uM” value is -5.92%.

Turning to `Cn1cc(Br)c(C(=O)Nc2ccc3c(C(F)(F)F)cc(=O)oc3c2)n1`, the “hERG current change (%, negative = inhibition) at 10uM” value amounted to 8.85%.

Turning to `CCCN(CC(=O)Nc1ccccc1C)C(=O)Cc1n[nH]c(=O)c2ccccc12`, the “hERG current change (%, negative = inhibition) at 10uM” value was -10.2%.

On to `Cc1cc(NCc2ccc(F)cc2)nc2cc(Cl)ccc12`, for which the “hERG current change (%, negative = inhibition) at 10uM” value is listed as 15.1%.

With `O=C(CSc1nnc(-c2cccs2)n1-c1ccccc1)N1CCCc2ccccc21`, the “hERG current change (%, negative = inhibition) at 10uM” value was -15.6%.

As for `Cc1ccc(S(=O)(=O)N2CCN(C(=O)c3cc(S(=O)(=O)N(C)C)ccc3N3CCCC3)CC2)cc1`, the “hERG current change (%, negative = inhibition) at 10uM” value is reported as -11.1%.

As for `Cc1cc(C)c2c(C)c(C(=O)Nc3c(C)n(C)n(-c4ccccc4)c3=O)oc2c1`, the “hERG current change (%, negative = inhibition) at 10uM” value was -16.7%.

Consider `COc1ccc(-c2cc3nc(C)cc(-c4ccc(OC)cc4)n3n2)cc1`, for which the “hERG current change (%, negative = inhibition) at 10uM” value was 18.6%.

Turning to `Cc1ccc(OCCNC(=O)c2ccc(COc3ccccc3)o2)cc1`, the “hERG current change (%, negative = inhibition) at 10uM” value is reported as -11.6%.

For the molecule `Cc1nn(CCOc2ccccc2)c(=O)n1-c1ccccc1F`, the “hERG current change (%, negative = inhibition) at 10uM” value is listed as 12.8%.

Consider `CC(=O)c1cccc(NC(=O)N2CCc3ccccc3C2)c1`, for which the “hERG current change (%, negative = inhibition) at 10uM” value was determined as 2.24%.

In the case of `O=C(COC(=O)c1ccc(NC(=O)C2CC=CCC2C(=O)O)cc1)c1ccccc1` (stereo not drawn), the “hERG current change (%, negative = inhibition) at 10uM” value is on record as 13.9%.

Consider `CCc1ccc2[nH]c(C)c(CN3CCCCCC3)c(=O)c2c1`, for which the “hERG current change (%, negative = inhibition) at 10uM” value is on record as -46.9%.

Consider `CCOC(=O)c1c(S(=O)(=O)NCC(=O)Nc2cc(C)ccn2)c(C)n(C)c1C`, for which the “hERG current change (%, negative = inhibition) at 10uM” value is reported as -10.7%.

As for `O=C(Nc1ccccc1)c1sc(Cl)nc1-c1ccccc1`, the “hERG current change (%, negative = inhibition) at 10uM” value was -24.9%.

For the molecule `COc1cc(C2N(c3cc(C)on3)C(=O)C3CCCN32)cc(OC)c1OC` (stereo not drawn), the “hERG current change (%, negative = inhibition) at 10uM” value is on record as 10.4%.

Turning to `COc1nc(OC)nc(Oc2ccc(Cl)cc2[N+](=O)[O-])n1`, the “hERG current change (%, negative = inhibition) at 10uM” value was 1.26%.

In the case of `COc1ccccc1N(CN1CCCC1=O)C(=O)COc1ccccc1`, the “hERG current change (%, negative = inhibition) at 10uM” value was determined as 3.46%.

On to `CSCC[C@H](NC(=O)OC(C)(C)C)c1nnc(SCC(N)=O)o1`, for which the “hERG current change (%, negative = inhibition) at 10uM” value was -1.72%.

Regarding `COC(=O)c1c(NC(=O)C(C)(C)C)sc2c1C(C(=O)OC)CC2` (stereo not drawn), the “hERG current change (%, negative = inhibition) at 10uM” value worked out at 0.0572%.

Take `CN1CCN(c2nc(-c3ccccc3)c3cc(Cl)ccc3n2)CC1`: the “hERG current change (%, negative = inhibition) at 10uM” value is -48.1%.

In the case of `COc1cc(C2C(C(=O)Nc3ccccc3OC)=C(C)Nc3ncnn32)ccc1O` (stereo not drawn), the “hERG current change (%, negative = inhibition) at 10uM” value turned out to be 14.1%.

Turning to `O=C(CCN1C(=O)S/C(=C\c2ccccc2)C1=O)N1CCOCC1`, the “hERG current change (%, negative = inhibition) at 10uM” value is -5.35%.

For the molecule `CC(C)CNS(=O)(=O)c1ccc(CCC(=O)NC2CCCCC2)cc1`, the “hERG current change (%, negative = inhibition) at 10uM” value amounted to 6.6%.

In the case of `Cc1cccc(NC(=O)CSc2nnc(-c3ccccc3)n2N)c1`, the “hERG current change (%, negative = inhibition) at 10uM” value worked out at 6.48%.

In the case of `Cc1cc(C)cc(N(CCC#N)C(=O)COC(=O)C2CCN(c3ccc(C(F)(F)F)cn3)CC2)c1`, the “hERG current change (%, negative = inhibition) at 10uM” value was -29.3%.

In the case of `O=C(O)C1C2CCC(C2)C1C(=O)Nc1nc2ccccc2s1` (stereo not drawn), the “hERG current change (%, negative = inhibition) at 10uM” value stood at 17.2%.

For the molecule `O=C(c1cccc(Br)c1)N1CCN(C(=O)N2CCOCC2)CC1`, the “hERG current change (%, negative = inhibition) at 10uM” value is listed as 10.4%.

In the case of `Cc1ccc2c(c1)cc(CN(Cc1cccnc1)C(=O)NCc1ccccc1)c1nnnn12`, the “hERG current change (%, negative = inhibition) at 10uM” value is on record as -75.2%.

On to `Cc1c(C=O)n(C)n(-c2ccccc2)c1=O`, for which the “hERG current change (%, negative = inhibition) at 10uM” value came out at 11.5%.

As to `CCC(C)NC(=O)C1CCN(S(=O)(=O)CC)CC1` (stereo not drawn), the “hERG current change (%, negative = inhibition) at 10uM” value is 4.01%.

As for `N=c1c(S(=O)(=O)c2ccc(Cl)cc2)cc2c(=O)n3ccccc3nc2n1CC1CCCO1` (stereo not drawn), the “hERG current change (%, negative = inhibition) at 10uM” value is listed as -13.3%.

For the molecule `COc1ccc(N2C(=O)CCC(C(=O)O)C2c2ccccc2OC)cc1` (stereo not drawn), the “hERG current change (%, negative = inhibition) at 10uM” value is -8.85%.

Take `CCN(CC(=O)Nc1c(F)cccc1F)C(=O)c1ccc(C)c(S(=O)(=O)N2CCCCC2)c1`: the “hERG current change (%, negative = inhibition) at 10uM” value was found to be 0.825%.

Take `CCOC(=O)C1=NOC(Cn2cc(C(C)=O)c(=O)[nH]c2=O)C1` (stereo not drawn): the “hERG current change (%, negative = inhibition) at 10uM” value amounted to 9.04%.

`CC(=O)c1ccc(NC2c3ncccc3C(=O)N2Cc2ccc(F)cc2)cc1` (stereo not drawn): the “hERG current change (%, negative = inhibition) at 10uM” value is reported as -8.58%.

Turning to `COc1ccc(C(C)=O)cc1CC(C(=O)c1ccc(C)cc1)N(C)C` (stereo not drawn), the “hERG current change (%, negative = inhibition) at 10uM” value is -6.61%.
